Measured values taken from publication PMC9377714, “Unconventional tonicity-regulated nuclear trafficking of NFAT5 mediated by KPNB1, XPOT and RUVBL2” (Journal of Cell Science, 2022).
Where two headings read alike, the source gives them in different places. No constants are given. Whether binding was seen depends on the method and setting. For some of these results: Binding seen in cells or lysates may run through a third protein. Some results given as binding are weak or reduced against the parent protein; the word gives no strength. For some of these results: Sequences can lack the tags named with a protein.

Chains of the proteins cited; added tags and fusions are not shown.
UniProt Q14974: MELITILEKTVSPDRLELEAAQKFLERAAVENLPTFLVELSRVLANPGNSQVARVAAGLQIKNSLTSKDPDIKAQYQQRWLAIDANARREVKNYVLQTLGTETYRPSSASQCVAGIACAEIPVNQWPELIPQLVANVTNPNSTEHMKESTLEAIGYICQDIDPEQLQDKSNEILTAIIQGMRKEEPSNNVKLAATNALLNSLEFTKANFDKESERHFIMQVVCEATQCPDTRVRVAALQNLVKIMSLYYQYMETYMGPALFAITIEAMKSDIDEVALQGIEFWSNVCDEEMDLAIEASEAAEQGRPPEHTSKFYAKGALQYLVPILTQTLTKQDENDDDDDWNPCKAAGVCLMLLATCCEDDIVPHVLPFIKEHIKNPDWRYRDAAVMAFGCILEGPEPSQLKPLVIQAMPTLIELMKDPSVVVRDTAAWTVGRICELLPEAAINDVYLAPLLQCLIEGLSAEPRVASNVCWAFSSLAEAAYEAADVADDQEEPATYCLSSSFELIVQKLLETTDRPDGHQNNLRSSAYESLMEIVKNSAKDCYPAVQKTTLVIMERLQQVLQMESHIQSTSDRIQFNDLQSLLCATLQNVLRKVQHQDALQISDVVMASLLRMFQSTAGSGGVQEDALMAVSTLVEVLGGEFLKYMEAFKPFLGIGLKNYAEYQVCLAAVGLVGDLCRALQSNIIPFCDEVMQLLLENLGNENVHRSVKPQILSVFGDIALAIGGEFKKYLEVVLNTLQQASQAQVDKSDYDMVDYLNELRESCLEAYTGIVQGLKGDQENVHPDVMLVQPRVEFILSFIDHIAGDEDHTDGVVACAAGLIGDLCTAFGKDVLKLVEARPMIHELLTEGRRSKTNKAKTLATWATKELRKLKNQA

Legend:
FLAG–NFAT5_(132–581) [1] = biological target: T1, FLAG–NFAT5_(132–581) (UniProt O94916); assay: co-IP; anti-FLAG affinity resin or FLAG antibodies on extracts of HeLa cells expressing FLAG–NFAT5 constructs, western blot for endogenous proteins; lysis buffer 50 mM Tris-HCl pH 7.8, 100 mM NaCl, 1 mM EDTA, 1% Triton X-100; in Fig. 6C cells treated with hypotonic, isotonic or hypertonic medium
T1 sequence: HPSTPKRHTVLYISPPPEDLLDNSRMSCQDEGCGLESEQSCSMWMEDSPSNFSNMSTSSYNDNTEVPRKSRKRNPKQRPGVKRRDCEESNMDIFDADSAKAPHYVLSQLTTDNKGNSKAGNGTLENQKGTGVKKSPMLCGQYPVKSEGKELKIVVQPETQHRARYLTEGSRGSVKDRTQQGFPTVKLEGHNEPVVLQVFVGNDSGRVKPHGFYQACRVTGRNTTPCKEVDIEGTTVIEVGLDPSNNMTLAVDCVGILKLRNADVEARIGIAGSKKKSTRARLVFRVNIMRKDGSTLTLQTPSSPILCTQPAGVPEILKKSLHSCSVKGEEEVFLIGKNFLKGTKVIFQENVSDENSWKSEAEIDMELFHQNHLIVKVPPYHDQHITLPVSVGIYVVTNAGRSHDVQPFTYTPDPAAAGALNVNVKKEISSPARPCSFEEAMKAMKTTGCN

[2] = biological target: karyopherin β1 (KPNB1), endogenous (human (endogenous in HeLa)) (UniProt Q14974); assay: co-IP; immunoprecipitation with anti-KPNB1 antibodies from HeLa lysate, western blot with NFAT5 and KPNB1 antibodies; IgG-only control
[3] = biological target: Nuclear factor of activated T-cells 5 (NFAT5), endogenous (human (endogenous in HeLa)) (UniProt O94916); assay: co-IP; immunoprecipitation with NFAT5 antibodies from HeLa cell extracts, western blot with the indicated antibodies; IgG control; in Fig. 6D cells treated with hypotonic, isotonic or hypertonic medium
His–KPNB1 = biological target: T2, His–KPNB1 (UniProt Q14974 1-876); assay: pull-down; His–KPNB1 immobilised on Ni-NTA agarose, GST fusion proteins added, 4°C overnight; washes with 20 mM sodium phosphate, 100 mM NaCl, 40 mM imidazole, 10% glycerol; SDS–PAGE and Coomassie Blue; both purified
T2 construct: KPNB1 (karyopherin β1, importin β1), full length, in a modified pET 30a vector; In the pull-down it was held on Ni-NTA by the His tag; also called full-length KPNB1; source: E. coli BL21 (DE3), purified (HisTrap HP)

FLAG–NFAT5_(132–581) [4] = biological target: T1, FLAG–NFAT5_(132–581); assay: co-IP; anti-FLAG affinity resin or FLAG antibodies on extracts of HeLa cells expressing FLAG–NFAT5 constructs, western blot for endogenous proteins; lysis buffer 50 mM Tris-HCl pH 7.8, 100 mM NaCl, 1 mM EDTA, 1% Triton X-100; in Fig. 6C cells treated with hypotonic, isotonic or hypertonic medium; remark: listed apart in the source

karyopherin β1 (KPNB1), endogenous (from UniProt Q14974 1-876)
binding (FLAG–NFAT5_(132–581) [1]): binds

Nuclear factor of activated T-cells 5 (NFAT5), endogenous (from UniProt O94916 1-1531)
binding [2]: binds

inosine-5'-monophosphate dehydrogenase 2 (IMPDH2), endogenous (from UniProt P12268 1-514)
binding [3]: binds

B1: GST–NFAT5_(220–250) (domain or fragment, UniProt O94916 220-250)
chain: SNMDIFDADSAKAPHYVLSQLTTDNKGNSKA
binding (His–KPNB1): binds weakly

B2: GST–NFAT5_(171–250(AA)) (domain or fragment, UniProt O94916 171-250)
chain: SCSMWMEDSPSNFSNMSTSSYNDNTEVPRKSAARNPKQRPGVKRRDCEESNMDIFDADSAKAPHYVLSQLTTDNKGNSKA
binding (His–KPNB1): binds weakly

B3: exportin-T (XPOT), endogenous (protein, UniProt O43592 1-962)
chain: MDEQALLGLNPNADSDFRQRALAYFEQLKISPDAWQVCAEALAQRTYSDDHVKFFCFQVLEHQVKYKYSELTTVQQQLIRETLISWLQAQMLNPQPEKTFIRNKAAQVFALLFVTEYLTKWPKFFFDILSVVDLNPRGVDLYLRILMAIDSELVDRDVVHTSEEARRNTLIKDTMREQCIPNLVESWYQILQNYQFTNSEVTCQCLEVVGAYVSWIDLSLIANDRFINMLLGHMSIEVLREEACDCLFEVVNKGMDPVDKMKLVESLCQVLQSAGFFSIDQEEDVDFLARFSKLVNGMGQSLIVSWSKLIKNGDIKNAQEALQAIETKVALMLQLLIHEDDDISSNIIGFCYDYLHILKQLTVLSDQQKANVEAIMLAVMKKLTYDEEYNFENEGEDEAMFVEYRKQLKLLLDRLAQVSPELLLASVRRVFSSTLQNWQTTRFMEVEVAIRLLYMLAEALPVSHGAHFSGDVSKASALQDMMRTLVTSGVSSYQHTSVTLEFFETVVRYEKFFTVEPQHIPCVLMAFLDHRGLRHSSAKVRSRTAYLFSRFVKSLNKQMNPFIEDILNRIQDLLELSPPENGHQSLLSSDDQLFIYETAGVLIVNSEYPAERKQALMRNLLTPLMEKFKILLEKLMLAQDEERQASLADCLNHAVGFASRTSKAFSNKQTVKQCGCSEVYLDCLQTFLPALSCPLQKDILRSGVRTFLHRMIICLEEEVLPFIPSASEHMLKDCEAKDLQEFIPLINQITAKFKIQVSPFLQQMFMPLLHAIFEVLLRPAEENDQSAALEKQMLRRSYFAFLQTVTGSGMSEVIANQGAENVERVLVTVIQGAVEYPDPIAQKTCFIILSKLVELWGGKDGPVGFADFVYKHIVPACFLAPLKQTFDLADAQTVLALSECAVTLKTIHLKRGPECVQYLQQEYLPSLQVAPEIIQEFCQALQQPDAKVFKNYLKVFFQRAKP
binding (FLAG–NFAT5_(132–581) [4]): no binding

B4: adenine nucleotide translocator 3 (SLC25A6), endogenous (protein, UniProt P12236 1-298)
chain: MTEQAISFAKDFLAGGIAAAISKTAVAPIERVKLLLQVQHASKQIAADKQYKGIVDCIVRIPKEQGVLSFWRGNLANVIRYFPTQALNFAFKDKYKQIFLGGVDKHTQFWRYFAGNLASGGAAGATSLCFVYPLDFARTRLAADVGKSGTEREFRGLGDCLVKITKSDGIRGLYQGFSVSVQGIIIYRAAYFGVYDTAKGMLPDPKNTHIVVSWMIAQTVTAVAGVVSYPFDTVRRRMMMQSGRKGADIMYTGTVDCWRKIFRDEGGKAFFKGAWSNVLRGMGGAFVLVLYDELKKVI
binding [3]: no binding
